The list shows a part of the results. Many values rest on one well or one pass, so single values are uncertain.
test system: A375; experiment: cell count relative to DMSO control; melanoma cells; higher = more viable cells; settings: library dose: standard library concentration; 72 h
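Also: cells treated in 1,536-well plates, then fixed and DAPI-stained, with nuclei counted from automated high-throughput microscope images.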

SMILES | cell count
O=C(Nc1cc(C(F)(F)F)cc(C(F)(F)F)c1)c1cc(Cl)ccc1O + Cn1cc(C2=C(c3cn(C4CCN(Cc5ccccn5)CC4)c4ccccc34)C(=O)NC2=O)c2ccccc21 [Enzastaurin] (first compound 0.08 µM, partner dose 4 µM) | 96.7%
Cc1cn(-c2cc(NC(=O)c3ccc(C)c(Nc4nccc(-c5cccnc5)n4)c3)cc(C(F)(F)F)c2)cn1 [nilotinib] + Cn1cc(C2=C(c3cn(C4CCN(Cc5ccccn5)CC4)c4ccccc34)C(=O)NC2=O)c2ccccc21 [Enzastaurin] (first compound 1 µM, partner dose 4 µM) | 126%
CN(c1ncccc1CNc1nc(Nc2ccc3c(c2)CC(=O)N3)ncc1C(F)(F)F)S(C)(=O)=O + N.N.[Cl][Pt][Cl] [cisplatin] (first compound 0.4 µM, partner dose 8 µM) | 73.4%
COc1ccc(C2=N[C@@H](c3ccc(Cl)cc3)[C@@H](c3ccc(Cl)cc3)N2C(=O)N2CCNC(=O)C2)c(OC(C)C)c1 [Nutlin-3] + C[C@]12O[C@H](C[C@]1(O)CO)n1c3ccccc3c3c4c(c5c6ccccc6n2c5c31)CNC4=O [Lestaurtinib] (first compound 0.5 µM, partner dose 0.02 µM) | 87.7%
C[C@]1(O)C[C@@H](c2nc(-c3ccc4ccc(-c5ccccc5)nc4c3)c3c(N)nccn32)C1 + C[As](C)SC[C@H](NC(=O)CC[C@H](N)C(=O)O)C(=O)NCC(=O)O [Darinaparsin] (first compound 2 µM, partner dose 2 µM) | 87.6%
CCCCCCCCCCCCCCCCCCOP(=O)([O-])OC1CC[N+](C)(C)CC1 [Perifosine] + C[As](C)SC[C@H](NC(=O)CC[C@H](N)C(=O)O)C(=O)NCC(=O)O [Darinaparsin] (first compound 2 µM, partner dose 2 µM) | 77.6%
